Assay results as given in the RNAGym collection of RNA variant scans (doi:10.7554/elife.90254).
The source gives no read counts; variants with many changes may rest on few reads.

B1: OR4K15 (parent)
chain: GUUAACGGUCAUAGGCCAUGGAAACUAGGAGCACCAUUUCGCUGCCAGUGAAGAAAUGAACAAAGAAAAUCUGGGCCAGGCAGGCAUCAAAAGAAAUAGUCUUGCGCUCAACCAGAAAGUCUGUAAUCAUUUUAAGGGUA

Variants of: B1
Test: self-cleavage, relative activity (ratio to wild type); higher = more cleavage; in vitro, sequencing; the parent is a self-cleaving ribozyme

Variant	self-cleavage
C6U A59G A95G	0.94
A5G A55C A78G A116G U120C A125G U127C	0.02
C6U A55G U70C	0.78
A5G A117G A129U	1.39
A5G U102C A126G U127A	0.91
A5G A30C A36G A51G A63G A96G A140G	0.52
C6U A92G U97C	1.16
A5G U12C A30G	0.78
A5G U49A A66G	1.21
A5G U37C G73A U103C U108C	0.01
A5G U87C A118G	0.74
C6U U37C U132C	1.42
A5G U9A A51C	1.64
A5G U127A U131C U133C	0.37
A5U A30G U102C U103A A116G	0.31
A5U U70C U100A A111G	0.04
C6U A55G A68G U130C	1.21
A5G A24C A94G	1.14
A5G A64U A111U	0.14
G7A A55G A86G U87A A96G U103C	0.75
A5G A64G U87C	0.52
A5G U26C A56G U70A	0.5
A5G A82G A92G	0.92
A5U A62G U124C	0.53

Variant	self-cleavage
A5G A33G A47G A52U A86U U87A A95G U103C	1.21
G7A A36G A60G U70C A114G	0.06
A5U A54G G83U	0.28
A5G U100C A110G G138U	0.44
A5G U19C A30G U87C	1.2
C6U C10U U39A A82U	0.07
A5U U70C U132C	1.38
A5G U39A U108A U122C	0.01
A5G A55G A96G A114G	0.34
C6U C34A A66G A89G A129U	0.67
A5G G48U A111G U131C G136U	0
C6A C45A A86G A111G A135U	0.01
G7A A69G C77U A91G	1.9
A5G U19C A60G U108C U132C	0.06
A5G U124C A125U U127C	0.31
A5U A18U A27G U72A U120C	0.19
A5G G29A A67U	0.48
A5G A56G A92G	1.99
A5G U39C U57C A68G A90G A135G	1.63
A5G A33G A140U	1.06
A5U U26C A96G A114U	0.09
A5G A47G U57C A68C A78G	0.51
A5U C35U A60G A68G A111G U122C	0.03
A5U A11G U19A A94G	1.78

Variant	self-cleavage
A5G A24G A52G A126G U127A	2.22
A5G A51G A90G A116G	0.18
A5G U9C A78U A98G A110G	0.07
G7A A78U U87G A114G G136A	0.08
A5G U38C A60G A125G	0.41
A5G A24G U39C U70C	0.65
C6U A63G A90G	1.06
A5G U26A A60G	0.49
A5G A36C A118G	1.06
A5G A95G A134G	0.9
A5G A52G A86G U131C	0.77
A5G U100C U127C	0.94
A5G A67G A110U	1.29
A5G A55G G79U A91G A111G	0.01
A5G A62U A78G U100C U124C	0.27
C6U A67G A114G	0.83
C6U A59U A96G A117G	0.42
G7A A13G A60C	1.42
A5G U19C A60G A118G	1.16
C6U A78C A90G A92G	0.25
A5G U39A A110G A135G	0.32
A5G A111G A126G	0.01
A5G A23G C61G A82U U100C U122G	0.68
A5G A69G A134G	1.58

Variant	self-cleavage
A5G A66U A69G	1.13
C6U A18G G28U	1.12
G7A A62G U127C	1.55
A5G A30U U87C A114U	0
G7A A24G A110U C128A	0.58
A5G U100G U120A	2.46
A5G A59G A60G A110U A129C	1.18
A5G G41U A52G A89U A140G	1.09
A5G A69G A82U	0.28
A5U G14C A63G A126G	0.43
C6U U26C U57C	0.98
A5G C34A A118G	0
A5U U132C A140C	1.44
A5U A24U A33G A86G	0.81
A5G U57C A78U	0.33
A5U U100C U108C A118G	0.04
A5G A30U A55G U87G	0.79
A5G A59G A95G A135G	1.02
A5G U49C U87C U103G U130C	0
A5U A24G A60C A67G U120C	1.3
G7A A18C A68G A110U	0.96
A5G U19C U38G	0.47
A5U A22G U43C A68G A69G	0.69
A5G U38C A54G A66U A96G	0.64

Variant	self-cleavage
A5U A66G C101U	0.13
A5U A94G U108C	0
A5G C17U A55G G84A	0.77
A5G A24U A47G A52G A129G	0.79
A5G U26A A27G A116U	0.08
A5G A33U U49C U102A	0.82
A5G A64G U70C U103C	0.54
A5G A67G A89U A91G A134U	1.11
A5G A64G A91G U100A	0.67
A5G U103C A129U	0.43
A5G A86U A90G U131A	0.68
A5G A51G A78G	0.39
A5U U9C U38C	1.16
A5G U43G A52G A62G U87C	0.51
G7A A59G A69C A96G	0.35
A5G A117G U120G	1.87
A5G U38A A52G	1
A5U A51G A69G U120C	1.24
A5G G50A A117G U122A U127C U132A	0.84
A5G A30G A78U G84A A89G U122C	0.2
A5G U72C G73U A96U U108A A129U U130C U131C	0
C6A A23G U132C	0.93
A5U A13G A36U U87C U130C U131C	1.38
A5U U103C U131A U132C	0.89

Variant	self-cleavage
A5G G15A U19A	1.02
A5G A47C U87G	0.47
C6A U72C A92G	0.04
C6U A68G U70C	0.51
A5U A60G A135G	1.38
A5U A86G A118G U122C	0.27
A5G U39C A92G U108C A114G	0.05
A5U C77A G115A	0.23
A5U U9C A24G A47G A62U A94G	0.15
A5G A98U A118G	1.33
A5U A13U A60C U120C	0.5
A5G U43C A51G A55G U87A	0.97
A5G U9C A55G U87A A92U	1.06
A5G U37C U131C	1.4
A5G A52G A67G	0
C6U U9C A51G U57C A68G	0.88
A5G A52G A54G G138C	1.46
A5G A30G A54G A96G U103G	0.1
A5G U19C A24G A90G A95U	1.02
G7A A67C U130C	1.82
A5G U39C A95G A135U	1.44
A5U U12C A27G	1.33
A5G A67G A96G U108C	0.09
C6A U72C U87C U130A	0.1

Variant	self-cleavage
A5U A96U U100C	2
A5G G48A U132C	1.93
A5G U37C U87C U100C	1.18
A5G A30G A33U A59G	1.25
A5G U9C U139A	0.7
C6U A36U U43C A54G A66U	0.55
A5G U87C A96G U127A	1.43
A5G A56G U130C	0.83
A5G C17U A69G A114G	0.18
A5G A33G U43C A67G U87C	0.21
A5G A78G A82G C121A	0.36
A5G A114U A125G A126G	0.03
A5G U57C A98U	1.04
A5G A56G A64G U131C	0.68
C6U A64U A116U U124C	0.17
A5G A111G U139G	0.11
A5U U39A A66G U72C U133C	0.22
A5G A69G A96U A98G A125G	0.41
A5G U100G U102C	1.34
A5G A67G U87C	0.9
A5G G44A A52G A59G A68G U100C	1.67
A5G U37C A86G	1.01
A5G A52G A60G A96G	0.92
